The list shows a part of the results. At the low end of the ranking the order means little. Measured with an extract: partners may take part in the binding.

The results in this text go back to PMC10726135.

This assay deals with T1, HNF4alpha8 (COS-7 nuclear extract) (UniProt P41235-5).
T1 sequence: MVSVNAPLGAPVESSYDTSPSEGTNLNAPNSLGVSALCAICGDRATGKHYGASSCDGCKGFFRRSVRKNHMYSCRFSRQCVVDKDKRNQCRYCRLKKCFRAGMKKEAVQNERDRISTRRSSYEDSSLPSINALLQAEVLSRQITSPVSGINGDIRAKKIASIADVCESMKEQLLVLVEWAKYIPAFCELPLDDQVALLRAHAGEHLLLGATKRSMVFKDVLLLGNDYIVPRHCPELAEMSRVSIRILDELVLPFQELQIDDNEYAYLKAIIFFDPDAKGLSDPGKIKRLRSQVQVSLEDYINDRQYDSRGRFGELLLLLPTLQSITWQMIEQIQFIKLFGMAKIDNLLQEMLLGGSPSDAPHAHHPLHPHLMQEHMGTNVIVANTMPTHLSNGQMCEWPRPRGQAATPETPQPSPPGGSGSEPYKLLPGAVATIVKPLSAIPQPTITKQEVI
Briefly: protein-binding microarray. Particulars: COS-7 nuclear extract on double-stranded Agilent 4x180k PBM; binding buffer, salt, pH and temperature not given; high values mean tight binding; double strand, one strand shown; sequences stand for … in …GCCTAGGGAGATTAGAGTATCGGTCGA
Take AACAGACAAATGAAAGAGCTCAAATGACAG: the binding signal (log2 normalized intensity) is -1.19. The figure for TCCTGATCTTTGACCTGGAGCATGACCCTT is 5.6; for CTCGGGTGTTCACAGGTGACCTCTGGCCAC it is 5.07; for GGGAGATAAGGCCCGGCTGATGGGACCAAA it is -1.33. The figure for AACTCTCTGTGGATGTATGTCCAGATAACT is 0.578. With CATTTGAGTACATGCCTCTCCCAGTGGAAT, the binding signal (log2 normalized intensity) came out at 1.27. The figure for TAACAAAAATATCACAATCCTTAAGCAGCA is -1.29; for TCAACTTTCAACATTTAACTTAACCACTCA it is 0.333.

For the sequence CTGGCTGCCCTGGGGATCAAAGCGTATGGG, the binding signal (log2 normalized intensity) was -1.35. The figure for CCTGCCTCAGGCCGACCCCTGCCTGGACTG is 2.86; for CCTCCAGCTCTTGGGGAACAATCGCCACTG it is -1.32. In the case of CAAATAGACTGGTTTGCACAGGTTACACAG it was -1.09.

AGTTCAATTTCCAACAAATGAAACTAAAGG: the binding signal (log2 normalized intensity) is -0.972. For TGGGCAATGTCAACAAATACTGACCTGAGA, the binding signal (log2 normalized intensity) stood at 1.59. Take TAACTCCCCCTTCATCTGGGACGTGGCTCA: the binding signal (log2 normalized intensity) was 1.34.

As for AGCGAGTAAGGCCCGTGAGATTGAAAGCTA, the binding signal (log2 normalized intensity) was -1.39. In the case of GAGGAATTTGGACTTTTACTCTTAGAGATA it was 3.83. The figure for CCCCCTGTGATTACTTCCACTCTTGCAGAT is 0.911; for TATCTTCTGCTTTCAAAGCTCCAGTTCCAG it is -1.34; for TATCAGTATCAATGAGATCTCCCCACATTC it is 1.14.

AAAGATGTTTAAATAGTGATAATGGATGGC: the binding signal (log2 normalized intensity) worked out at 0.702. In the case of TGAGATACCACGTATCTTTCAGATCCCTTG it was -1.35; in that of GTCACTTCTGCTGCATTCTATTGGTCAAAG, 1.44. Turning to CTTGTCTAAAAACATTGTGGAGCTCATGTA, the binding signal (log2 normalized intensity) is 1.25. The figure for CTAAACCTCTGCACACAGGATGTTTTCTCT is -1.33; for AGGAGGGGACTTCAAAGGCTCCCCTAATCC it is -1.26; for TTTTCTTTTGGCATCTGTTGCTCAAGGAGG it is 0.983. The figure for TTTGGGAACCGTTAGCAACCGGAAGTGGCT is -1.2; for AAGGCAGGCAGCATGGAATGACTTTGGGGA it is -1.36; for GAAGGGAAGCTCTGGGAGTGCCCTTGCCGA it is -0.148. For the sequence TATTTAGACTCAGCATGTCTTCTGACCTTT, the binding signal (log2 normalized intensity) was found to be 7.33. In the case of AGCAATCTTGAGGTTTCCACTGATAAAGTT it was 0.569; in that of GACCTTTATATGTCCACCTTATCTAATGCC, 2.22. As to AGACTTCAAAGCATTCCACATTCTCCACTG, the binding signal (log2 normalized intensity) was -1.45.

On to GGAGAGCTGGACTTTCATCTGAGTCTCAGC, for which the binding signal (log2 normalized intensity) worked out at 2.59. For the sequence AAAGGCGTTTGCTCCCATCCCCCCAAAGGC, the binding signal (log2 normalized intensity) is 5.12.

With AGAACTATCAAACATTTTTGCAACATGAGG, the binding signal (log2 normalized intensity) came out at 0.388.

On to CCCTCTCCTTTGGTGCAAATACCATCCCCA, for which the binding signal (log2 normalized intensity) is 3.41. As for TGCTGCCGCATTTTCCTTTGTTGGTTTTGC, the binding signal (log2 normalized intensity) worked out at 0.648. On to TGACCCCAGGGGAAACTCCATTTCCTTCTA, for which the binding signal (log2 normalized intensity) was 1.11. In the case of GTCTTAGTATTAACGGTGAGGGAGGAGACT it was -1.21.

Consider ACCCTGTTTTGTAAACTCCCTTTGATGCGG, for which the binding signal (log2 normalized intensity) worked out at 0.325. In the case of TGATGCATCAGACCCCTGAGTTTCGCAGCT it was 1.71; in that of GGTGAGCTTTTATCTTAAGTGAGGTGGAAA, 1.04. In the case of AAACCAAACTGCAGCTGCTGCACTGATAAG it was -1.44; in that of AAAAGGGGACCGGCCTTTCCCGGCTGCCTA, -1.34; in that of AGAGGCAAGGAAAGATAAATAGTGACAAAT, -1.34.

Regarding GAATCAATGCCTGATTCCAAAGTCCACTTT, the binding signal (log2 normalized intensity) is 7.71.

As to CTCTCATTGGAATGAGCCTCCTGAAGATCC, the binding signal (log2 normalized intensity) was -1.29. Consider TGACCCCTAGCACTTCCCGAGTGAGGCAAT, for which the binding signal (log2 normalized intensity) turned out to be 2.07. Regarding CGAAATGGGGATAAACACCCCCATCTATGC, the binding signal (log2 normalized intensity) is 1.38.

For TGCTGATTACATAGGAGGCTGCCTCTCTGT, the binding signal (log2 normalized intensity) was -1.31. For the sequence ACATTTTACAACCTATTCTCTCTGAGGGCT, the binding signal (log2 normalized intensity) was -1.26. In the case of CCTCTCTCTCTCTCTCTCACACACACACAC it was 1.81; in that of GAGCTCAAATGACAGAACAGTCCAGAGATT, -1.21; in that of AGGTAAGTACCAATATTTGTTAAGTACCCA, 0.424. In the case of AAGTTAACCCCATCACCCATGTGCAGGCAA it was 2.44; in that of AATTAAGGAGATTTGGCTTTGAATTCCACT, -1.3; in that of AAAAACACTCAGTTAATTATGGTAGAGCTA, -1.39. In the case of GGAGGGTGAAGGTCACAATTTCCAGGAGTA, the binding signal (log2 normalized intensity) turned out to be 3.15. As for AATTCTCATTCATCCAAGGACTTTGTAATC, the binding signal (log2 normalized intensity) was determined as 3.57. Take CTCTGGCCAGAGAGATGTCAGCCCAAGATA: the binding signal (log2 normalized intensity) was 3.25. The figure for GCCACTGGTTAGTTCCAAAGGACAAATCTC is 1.53; for TGATCTGGTTTTTGTTGTTGAGCAAATCAT it is 1.23. Take ATTACTGAAGTTCCAGAGCCTTCAAAGGAA: the binding signal (log2 normalized intensity) was -1.23. The figure for CCACCTGCCCCAGGAATGCCTTTTCTTTCA is 1.51; for CAGTCACTCATGAGCCATCCTGAACAAATG it is -1.2; for AAGCCACAGAGATCAGAATCATAAAGCAGG it is -1.28. The figure for TGGATTCGCCCAGCATAGCACACCAGCTCT is -1.45; for CCAGTTATTCATGTCCCTACCACATACAGA it is 1.38; for GCTATGATTGCGCCACTGCATTCCAGCCTG it is -1.26.

For CAATCCCCCATCTATTTACAAAAGACCAGA, the binding signal (log2 normalized intensity) stood at 2.41.
